From PubChem BioAssay AID504339 (National Center for Advancing Translational Sciences (NCATS), 2011)
Several values for one entry are separate records, joined by “and”; a condition that tells them apart may be missing. Equal entries are not always repeated. Among all 390,000 compounds or so, about 17,000 (4.4%) were called active. Inconclusive means that the source gave no clear call. Such entries were picked first, then a sample of the others. Calls follow the shape of the dose curve; as a rule, active = well fitted inhibition curve with a large enough effect; inconclusive = small, poorly fitted or top-dose-only effect; inactive = no such curve, though single readings can be large or run the other way. Where the call is inconclusive, the potency comes from a doubtful curve fit.

target: Lysine-specific demethylase 4A (Homo sapiens) (UniProt O75164); experiment: qHTS Assay for Inhibitors of JMJD2A-Tudor Domain; conditions: AlphaScreen JMJD2A-Tudor / H3K4me3 peptide binding; activity change, negative = inhibition: at 114 µM (top of the series); also: nearly all actives have a fitted effect of over 50% in size
% is scaled to controls: 0 for no effect and ±100 for the full control effect; potency is read from the fitted curve at half-maximal effect; tags tell the direction and shape of the fitted curve.

Sequence of UniProt O75164 (O75164 whole entry, looked up, the tested form may be a part): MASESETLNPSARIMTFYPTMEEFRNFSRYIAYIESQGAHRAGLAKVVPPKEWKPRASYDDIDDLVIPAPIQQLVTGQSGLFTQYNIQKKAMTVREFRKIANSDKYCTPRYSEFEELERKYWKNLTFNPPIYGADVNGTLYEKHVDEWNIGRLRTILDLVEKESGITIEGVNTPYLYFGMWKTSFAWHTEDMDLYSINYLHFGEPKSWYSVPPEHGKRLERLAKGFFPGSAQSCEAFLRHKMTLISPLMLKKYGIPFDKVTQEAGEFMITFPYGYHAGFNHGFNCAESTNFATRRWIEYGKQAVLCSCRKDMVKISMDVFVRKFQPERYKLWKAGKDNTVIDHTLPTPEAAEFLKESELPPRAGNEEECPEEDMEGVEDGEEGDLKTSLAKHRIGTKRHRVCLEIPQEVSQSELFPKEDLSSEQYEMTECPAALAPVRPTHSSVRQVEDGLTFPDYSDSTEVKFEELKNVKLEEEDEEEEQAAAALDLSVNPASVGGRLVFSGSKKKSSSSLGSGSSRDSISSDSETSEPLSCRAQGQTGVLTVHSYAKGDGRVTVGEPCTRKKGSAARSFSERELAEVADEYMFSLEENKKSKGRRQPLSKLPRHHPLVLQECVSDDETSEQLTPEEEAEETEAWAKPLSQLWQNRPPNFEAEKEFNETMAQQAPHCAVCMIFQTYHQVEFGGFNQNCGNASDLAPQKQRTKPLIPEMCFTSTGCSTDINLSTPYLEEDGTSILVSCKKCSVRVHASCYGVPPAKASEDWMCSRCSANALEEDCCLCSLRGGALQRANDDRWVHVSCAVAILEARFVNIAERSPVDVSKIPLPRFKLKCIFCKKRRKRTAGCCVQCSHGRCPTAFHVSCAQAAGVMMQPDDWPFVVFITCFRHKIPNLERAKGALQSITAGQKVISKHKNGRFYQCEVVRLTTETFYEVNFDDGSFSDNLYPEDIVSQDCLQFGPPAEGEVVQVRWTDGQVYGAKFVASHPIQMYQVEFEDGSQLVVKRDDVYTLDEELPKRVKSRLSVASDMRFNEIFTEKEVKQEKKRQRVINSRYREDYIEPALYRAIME

Potency, inactive:
Cc1ccc(-c2nnc(NC(=O)C3=COCCO3)o2)c(C)c1, O=C(CCC(=O)CCN1CCCCC1)CCN1CCCCC1, COc1ccc(C(=O)N/N=C/c2sc(=O)n(Cc3cccc(C(=O)O)c3)c2Cl)cc1, CCCC1(C(=O)OC)NC(c2ccc(OC)cc2OC)C2C(=O)N(c3cccc(C(C)=O)c3)C(=O)C21 (centres undefined), CC1(C)CCC(C)(C)c2cc([S+](=O)([O-])N3CCN([S+](=O)([O-])c4c(F)cccc4F)CC3)ccc21, CCOc1ccc(NC(=O)CSc2nc3ccsc3c(=O)n2CCCCCC(=O)O)cc1, CC(=O)NCCC(=O)Nc1cc(S(=O)(=O)N2CCOCC2)ccc1N1CCCC1, CCOC(=O)/C(=C/C=C1\Sc2cc(C)c(C)cc2N1CC)C(C)=O, COCCCN1C(=O)C(=O)/C(=C(/O)c2ccc(S(=O)(=O)N3CCCCC3)cc2)C1c1ccc(OC)cc1 (centres undefined), COc1cc(Cl)c(C)cc1NC(=O)CSCC#N, N#Cc1ccc(Oc2c(Cl)cncc2Cl)cc1, CCCCC(=O)Nc1ccc(N2CCN(C(=O)CC)CC2)cc1

Potency, active:
CCCC1=NN2C(=N)/C(=C\c3ccc(SCc4ccco4)o3)C(=O)N=C2S1 50.1 µM, Cc1sc(NC(=O)CCl)c(C(=O)c2ccccc2)c1C 20 µM, CC1CC(=O)Nc2ccccc2N1S(=O)(=O)c1ccccc1 (centres undefined) 17.8 µM, CCCOc1ccc(-c2cc(C(F)(F)F)c(C#N)c(SCCC(=O)O)n2)cc1 79.4 µM

Potency, inconclusive:
CC(C)OCc1cc(CN2CCN(c3cccc(C(F)(F)F)c3)CC2)c(O)c2ncccc12 8.91 µM [inhibitor, full curve, poor fit], Cc1ccc(S(=O)(=O)c2nc(-c3ccccc3Cl)oc2NCCCN2CCOCC2)cc1 44.7 µM [inhibitor, partial curve], Cc1cc(C)c2c(c1)/C(=C/C(=O)c1ccc(Br)s1)C(=O)N2 10 µM [inhibitor, full curve], O=C(OCCN1CCOCC1)c1ccc(OCCN2CCOCC2)cc1 50.1 µM [inhibitor, partial curve], CCOC(=O)C(=NCC1CCCO1)NNc1cc(Cl)ccc1Cl (centres undefined) 56.2 µM [inhibitor, partial curve], COc1ccccc1N1CCN(C(=O)CSc2ncnc3scc(-c4ccccc4)c23)CC1 31.6 µM [inhibitor, single point], COc1cccc(/C=C2\SC(=N)N(c3ccc(F)cc3)C2=O)c1 89.1 µM [inhibitor, single point], COc1ccc(/C=N/n2c(=S)n(C)c3ccccc32)cc1OC 14.1 µM [inhibitor, full curve, poor fit], COC(=O)c1cc(=O)n(Cc2ccc3c(c2)OCO3)c(=Nc2ccccc2)s1 39.8 µM [inhibitor, partial curve], CC(=O)c1ccc(Nc2ncnc3c2oc2ccccc23)cc1 79.4 µM [inhibitor, partial curve], CCOC(=O)C1=C(O)/C(=C/c2ccc(OCC(=O)O)c(OC)c2)SC1=Nc1ccc(OCC)cc1 22.4 µM [inhibitor, full curve, poor fit], CNNCc1ccc(C(=O)NC(C)C)cc1 79.4 µM [inhibitor, single point], COc1ccccc1NS(=O)(=O)c1cc(NC(=O)CCNC(C)=O)ccc1N1CCCCC1 56.2 µM [inhibitor, partial curve], O=C1NC(=S)S/C1=C\c1coc2ccccc2c1=O 56.2 µM [inhibitor, partial curve, poor fit], COc1ccc(C(CC(=O)N2CCN(c3ccccc3)CC2)c2c(O)cc(OC)cc2OC)cc1 (centres undefined) 35.5 µM [inhibitor, full curve] and 50.1 µM [inhibitor, partial curve], Cc1ccc(C)c(N2CCN(c3ccncc3N)CC2)c1 100 µM [inhibitor, single point], Cc1ccc(NC(=O)CSc2nccn2Cc2ccccc2)cc1C 50.1 µM [inhibitor, partial curve], CN1CCc2c(C#N)c(N3CCCCC3)nc(NCc3ccccc3)c2C1 44.7 µM [inhibitor, partial curve], Fc1ccc(C2C3=C(Nc4ncnn42)c2ccccc2OC3c2ccncc2)cc1 (centres undefined) 56.2 µM [inhibitor, partial curve], CC1=CC(=O)C(C(C)=Nc2ccccc2Cl)C(=O)O1 (centres undefined) 39.8 µM [inhibitor, single point], CNC(=S)N(CCc1c(C)[nH]c2ccc(C)cc12)Cc1cc(OC)c(OC)c(OC)c1 63.1 µM [inhibitor, partial curve], CCN(CCCNC(=O)CN1N=C(c2ccccc2)CCC1=O)c1ccccc1 79.4 µM [inhibitor, partial curve], Cc1cccc(N2C(=O)SC(SC(=Nc3ccccc3)Nc3ccccc3)C2=O)c1 (centres undefined) 50.1 µM [inhibitor, single point], CC(O)CNc1ncnc2cc(-c3ccc(F)cc3)sc12 (centres undefined) 100 µM [inhibitor, single point], Cc1cc(C(=O)CSc2nnnn2-c2ccc(O)cc2)c(C)n1Cc1ccc2c(c1)OCO2 28.2 µM [inhibitor, full curve, poor fit], O=C1c2ccccc2C(=O)N1CCCc1nc(-c2cccnc2)no1 89.1 µM [inhibitor, single point], CCOc1cc(-c2ccc(OC(=O)c3ccccc3)c(OC)c2)cc(=O)c2c(C)oc(C)c12 56.2 µM [inhibitor, partial curve, poor fit]

Activity change, negative = inhibition, inactive:
C=C(c1ccc(OCCO)cc1)c1ccc(OCCO)cc1 9.59% [at 11.4 µM]
